Test results: PubChem BioAssay AID652104 (National Center for Advancing Translational Sciences (NCATS), 2013)
Out of some 410,000 compounds screened, about 7,200 (1.8%) were called active. Inconclusive means that the source gave no clear call. Such entries were picked first, then a sample of the others. Calls follow the shape of the dose curve; as a rule, active = well fitted activation curve with a large enough effect; inconclusive = small, poorly fitted or top-dose-only effect, or another doubt; inactive = no such curve, though single readings can be large or run the other way. Potencies of inconclusive entries are doubtful fits and often do not repeat.

assay: qHTS of TDP-43 Inhibitors; settings: TDP-43 expressing yeast growth rescue, BacTiter-Glo, 24 h; growth rescue (activation): at 46.1 µM (top of the series) unless noted; also: nearly all actives have a fitted effect of over 50% in size; as to growth rescue (activation): % of control where 0% means no effect
In short: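 Galactose-induced TDP-43 yeast, OD600=0.02, compound pinned; 24 hr, 30 deg C; BacTiter-Glo luminescence for growth. Inhibitors of TDP-43 toxicity read as activators.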
Potency is read from the fitted curve at half-maximal effect; tags tell the direction and shape of the fitted curve.

Potency, inactive:
O=c1ccn(Cc2ccccc2)c(SCc2ccccc2)n1, Cc1nn(Cc2ccccc2Cl)c(C)c1C(=O)NC1=NCCS1, Cc1ccc(Nc2cc(C(=O)NCc3cccs3)c3ccccc3n2)c(C)c1, CC(=O)c1ccc(NC(=O)Cn2ncc3c(C)n(Cc4ccc(F)cc4)c(C)c3c2=O)cc1

Potency, active:
CCCc1cnc(N2CCN(C(=O)c3ccccc3)CC2)nc1 11.2 µM, COc1ccc(Nc2ncc3c(n2)CCN(C(=O)OC(C)(C)C)C3)cc1 14.1 µM, CCC(=O)NC(=S)Nc1cccc(NC(=O)c2ccccc2Cl)c1 14.1 µM

Potency, inconclusive:
CCCc1c(O)nc(SCCN(CC)CC)n(C(=O)c2ccccc2)c1=O 14.1 µM [activator, single point], Cc1ccc(CC2C(=O)N(c3ccc(F)cc3)C(=O)C2C)cc1 (centres undefined) 31.6 µM [activator, single point], O=C(CN1C(=O)C(=O)N(C2CCCC2)C1=O)Nc1ccccc1OC(F)F 31.6 µM [activator, partial curve], O=S(=O)(Nc1ccc2c(c1)OCO2)c1ccc(Cl)cc1F 10 µM [activator, partial curve, poor fit], NNc1nc(Nc2ccc([N+](=O)[O-])cc2)nc(N2CCCCCC2)n1 10 µM [activator, partial curve], COc1ccccc1CNc1ncnc2c1c(-c1ccccc1)cn2-c1cccc(C)c1 1.12 µM [activator, full curve, poor fit], Cc1ccccc1CNC(=O)CCC(=O)N1CC2CCCN2c2ccccc21 (centres undefined) 11.2 µM [activator, single point], COc1ccc(NC(=O)CN2C(=O)CCc3cc(S(=O)(=O)N4CCOCC4)ccc32)cc1Cl 1.78 µM [activator, partial curve], COc1ccc(NC(=O)COC(=O)Cc2coc3cc(OC)ccc23)c(OC)c1 35.5 µM [activator, partial curve, poor fit], O=C(c1ccc(Cl)cc1)N1CCN(c2cccc3[nH]ccc23)CC1 35.5 µM [activator, single point], Cc1nn(CCCC(=O)Nc2cccc(F)c2)c(=O)c2c1sc1ccccc12 35.5 µM [activator, single point]

Growth rescue (activation), inconclusive:
COc1cc2c(c(OC)c1CC=C(C)C)C[C@H](c1ccc(O)cc1O)CO2 -92.1% [activator]
